# Measurements as given in the supplement of paper PMC8728848.
# The other results are listed elsewhere or left out.
# B1: LKITALY (Gibberella zeae) (protein)
# chain: MGNFHESSNNIWLEDGHILHAECGNGEGDYVESTLDLDYYIGNDDGSFSWGGENFSGSASNITLDIEGDDNIPVLRAELNPMDGDPVEANVNLSERIGNDCGTLIFLA
# Assays:
# Test in all cases: glycan array binding signal (z-score within array); higher = stronger binding
# Conditions in all cases: glycan notation: IUPAC condensed, linker removed
# [1] = target: Fuc(a1-2)Gal
# Summary of the method: (§1)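 Glycan array data came from 3228 arrays in the Consortium for Functional Glycomics database, and only arrays with an available protein sequence were kept. Glycan names were put into IUPAC-condensed notation, and columns mapping to the same glycan were averaged. The binding signal is a within-array Z-score, averaged across arrays of one protein sequence run at different concentrations or buffers and across linkers. A negative Z-score can be read as non-binding.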
# [2] = target: Fuc(a1-2)Gal(b1-3)GalNAc
# Summary of the method: as §1
# [3] = target: Fuc(a1-2)Gal(b1-3)GalNAc(b1-3)Gal
# Summary of the method: as §1
# [4] = target: Fuc(a1-2)Gal(b1-3)GalNAc(b1-3)Gal(a1-4)Gal(b1-4)Glc
# Summary of the method: as §1
# [5] = target: Fuc(a1-2)Gal(b1-3)GalNAc(b1-4)[Neu5Ac(a2-3)]Gal(b1-4)Glc
# Summary of the method: as §1
# [6] = target: Fuc(a1-2)Gal(b1-3)GlcNAc
# Summary of the method: as §1
# [7] = target: Fuc(a1-2)Gal(b1-3)GlcNAc(b1-3)Gal(b1-4)Glc
# Summary of the method: as §1
# [8] = target: Fuc(a1-2)Gal(b1-3)[Fuc(a1-4)]GlcNAc
# Summary of the method: as §1
# [9] = target: Fuc(a1-2)Gal(b1-4)Glc
# Summary of the method: as §1
# [10] = target: Fuc(a1-2)Gal(b1-4)GlcNAc
# Summary of the method: as §1
# [11] = target: Fuc(a1-2)Gal(b1-4)GlcNAc(b1-3)Gal(b1-4)GlcNAc
# Summary of the method: as §1
# [12] = target: Fuc(a1-2)Gal(b1-4)GlcNAc(b1-3)Gal(b1-4)GlcNAc(b1-3)Gal(b1-4)GlcNAc
# Summary of the method: as §1
# [13] = target: Fuc(a1-2)Gal(b1-4)[Fuc(a1-3)]GlcNAc
# Summary of the method: as §1
# [14] = target: Fuc(a1-2)Gal(b1-4)[Fuc(a1-3)]GlcNAc(b1-3)Gal(b1-4)[Fuc(a1-3)]GlcNAc
# Summary of the method: as §1
# [15] = target: Fuc(a1-2)Gal(b1-4)[Fuc(a1-3)]GlcNAc(b1-3)Gal(b1-4)[Fuc(a1-3)]GlcNAc(b1-3)Gal(b1-4)[Fuc(a1-3)]GlcNAc
# Summary of the method: as §1
# [16] = target: Fuc(a1-2)GlcNAc
# Summary of the method: as §1
# [17] = target: Fuc(a1-2)[Gal(a1-3)]Gal
# Summary of the method: as §1
# [18] = target: Fuc(a1-2)[Gal(a1-3)]Gal(b1-3)GlcNAc
# Summary of the method: as §1
# [19] = target: Fuc(a1-2)[Gal(a1-3)]Gal(b1-4)Glc
# Summary of the method: as §1
# [20] = target: Fuc(a1-2)[Gal(a1-3)]Gal(b1-4)GlcNAc
# Summary of the method: as §1
# [21] = target: Fuc(a1-2)[Gal(a1-3)]Gal(b1-4)[Fuc(a1-3)]GlcNAc
# Summary of the method: as §1
# [22] = target: Fuc(a1-2)[Gal(a1-4)]Gal(b1-4)GlcNAc
# Summary of the method: as §1
# [23] = target: Fuc(a1-2)[GalNAc(a1-3)]Gal
# Summary of the method: as §1
# [24] = target: Fuc(a1-2)[GalNAc(a1-3)]Gal(b1-3)GlcNAc
# Summary of the method: as §1
# [25] = target: Fuc(a1-2)[GalNAc(a1-3)]Gal(b1-4)Glc
# Summary of the method: as §1
# [26] = target: Fuc(a1-2)[GalNAc(a1-3)]Gal(b1-4)GlcNAc
# Summary of the method: as §1
# [27] = target: Fuc(a1-2)[GalNAc(a1-3)]Gal(b1-4)[Fuc(a1-3)]GlcNAc
# Summary of the method: as §1
# [28] = target: Fuc(a1-2)[GalNAc(a1-4)]Gal(b1-4)GlcNAc
# Summary of the method: as §1
# [29] = target: Fuc(a1-2)[GalNAc(b1-3)]Gal
# Summary of the method: as §1
# [30] = target: Fuc(a1-3)GlcNAc
# Summary of the method: as §1
# [31] = target: Fuc(a1-3)[Gal(b1-4)]GlcNAc
# Summary of the method: as §1
# [32] = target: Fuc(a1-3)[Gal(b1-4)]GlcNAc(b1-4)Gal(b1-4)[Fuc(a1-3)]GlcNAc
# Summary of the method: as §1
# [33] = target: Fuc(a1-3)[Gal(b1-4)]GlcNAc(b1-4)Gal(b1-4)[Fuc(a1-3)]GlcNAc(b1-4)Gal(b1-4)[Fuc(a1-3)]GlcNAc
# Summary of the method: as §1
# [34] = target: Fuc(a1-3)[Gal3S(b1-4)]GlcNAc
# Summary of the method: as §1
# [35] = target: Fuc(a1-3)[GalNAc(b1-4)]GlcNAc
# Summary of the method: as §1
# [36] = target: Fuc(a1-4)GlcNAc
# Summary of the method: as §1
# [37] = target: Fuc(b1-3)GlcNAc
# Summary of the method: as §1
binder,measurement,setting,value
B1,glycan array binding signal (z-score),[1],-0.357
same,glycan array binding signal (z-score),[2],-0.361
same,glycan array binding signal (z-score),[3],-0.37
same,glycan array binding signal (z-score),[4],-0.359
same,glycan array binding signal (z-score),[5],-0.344
same,glycan array binding signal (z-score),[6],-0.357
same,glycan array binding signal (z-score),[7],-0.327
same,glycan array binding signal (z-score),[8],-0.337
same,glycan array binding signal (z-score),[9],-0.34
same,glycan array binding signal (z-score),[10],-0.355
same,glycan array binding signal (z-score),[11],-0.364
same,glycan array binding signal (z-score),[12],-0.342
same,glycan array binding signal (z-score),[13],-0.332
same,glycan array binding signal (z-score),[14],-0.341
same,glycan array binding signal (z-score),[15],-0.36
same,glycan array binding signal (z-score),[16],-0.252
same,glycan array binding signal (z-score),[17],-0.364
same,glycan array binding signal (z-score),[18],-0.347
same,glycan array binding signal (z-score),[19],-0.365
same,glycan array binding signal (z-score),[20],-0.355
same,glycan array binding signal (z-score),[21],-0.356
same,glycan array binding signal (z-score),[22],-0.34
same,glycan array binding signal (z-score),[23],-0.347
same,glycan array binding signal (z-score),[24],-0.357
same,glycan array binding signal (z-score),[25],-0.35
same,glycan array binding signal (z-score),[26],-0.355
same,glycan array binding signal (z-score),[27],-0.35
same,glycan array binding signal (z-score),[28],-0.359
same,glycan array binding signal (z-score),[29],-0.36
same,glycan array binding signal (z-score),[30],-0.346
same,glycan array binding signal (z-score),[31],-0.359
same,glycan array binding signal (z-score),[32],-0.354
same,glycan array binding signal (z-score),[33],-0.365
same,glycan array binding signal (z-score),[34],-0.363
same,glycan array binding signal (z-score),[35],-0.363
same,glycan array binding signal (z-score),[36],-0.36
same,glycan array binding signal (z-score),[37],-0.34
